# Values joined by “and” are separate entries in the source; they are usually repeats but may differ in a detail not shown here. Identical values can stand only once. Screen size: about 390,000 compounds; about 17,000 (4.4%) were called active. The shares of active, inactive and inconclusive entries below differ from those in the screen. Calls follow the shape of the dose curve; as a rule, active = well fitted inhibition curve with a large enough effect; inconclusive = small, poorly fitted or top-dose-only effect; inactive = no such curve, though single readings can be large or run the other way. Potencies beside an inconclusive call are fits to weak or partial responses and may not hold up.
# Target: Lysine-specific demethylase 4A (Homo sapiens) (UniProt O75164)
# UniProt O75164, sequence (O75164 whole entry, looked up, the tested form may be a part): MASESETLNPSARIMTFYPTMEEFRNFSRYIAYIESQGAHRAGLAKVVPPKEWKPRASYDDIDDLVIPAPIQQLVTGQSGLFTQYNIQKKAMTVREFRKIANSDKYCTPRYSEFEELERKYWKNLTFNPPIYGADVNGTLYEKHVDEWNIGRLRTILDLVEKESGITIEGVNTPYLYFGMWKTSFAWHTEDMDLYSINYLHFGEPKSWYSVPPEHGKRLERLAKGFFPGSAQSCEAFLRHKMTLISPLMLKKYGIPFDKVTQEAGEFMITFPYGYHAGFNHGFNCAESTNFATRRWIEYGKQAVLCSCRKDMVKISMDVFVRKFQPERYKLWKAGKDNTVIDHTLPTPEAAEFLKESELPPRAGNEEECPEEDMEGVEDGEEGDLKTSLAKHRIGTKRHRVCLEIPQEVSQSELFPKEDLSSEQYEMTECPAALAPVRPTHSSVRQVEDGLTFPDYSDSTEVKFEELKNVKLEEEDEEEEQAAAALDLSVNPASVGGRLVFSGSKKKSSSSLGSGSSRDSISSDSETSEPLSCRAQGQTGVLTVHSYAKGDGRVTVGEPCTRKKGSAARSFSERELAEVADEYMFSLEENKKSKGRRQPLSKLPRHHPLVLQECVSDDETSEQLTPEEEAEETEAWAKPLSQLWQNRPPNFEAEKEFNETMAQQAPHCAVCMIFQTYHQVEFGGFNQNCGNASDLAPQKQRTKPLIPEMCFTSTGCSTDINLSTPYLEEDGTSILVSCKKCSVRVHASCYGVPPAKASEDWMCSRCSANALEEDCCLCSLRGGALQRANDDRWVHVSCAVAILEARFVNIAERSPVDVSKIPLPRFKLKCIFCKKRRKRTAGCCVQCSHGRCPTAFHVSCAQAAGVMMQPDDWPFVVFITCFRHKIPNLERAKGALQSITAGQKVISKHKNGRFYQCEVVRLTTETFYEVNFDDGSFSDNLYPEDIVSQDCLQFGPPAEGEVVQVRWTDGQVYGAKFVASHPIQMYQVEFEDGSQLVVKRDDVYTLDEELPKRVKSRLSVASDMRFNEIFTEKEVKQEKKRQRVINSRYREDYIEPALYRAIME
# Experiment: qHTS Assay for Inhibitors of JMJD2A-Tudor Domain; also: nearly all actives have a fitted effect of over 50% in size
# Conditions: AlphaScreen JMJD2A-Tudor / H3K4me3 peptide binding; series mostly up to 114 µM
# Potency is read from the fitted curve at half-maximal effect; tags tell the direction and shape of the fitted curve.
row,SMILES,Potency
1,Cc1ccc(NC(=O)Cn2cnc([N+](=O)[O-])c2)cc1C,inactive
2,CCc1ccc(CNC(=O)c2cc3ccccn3n2)cc1,inactive
3,CC(C)C[C@@H](CN1CCCC1CN1C(=S)NC[C@@H]1Cc1ccc(O)cc1)N1C[C@H](Cc2ccccc2)N(CCc2ccccc2)C1=S (some centres undefined),"inconclusive: 17.8 µM [inhibitor, partial curve]"
4,c1ccc(-c2n[nH]c(-c3ccccn3)n2)cc1,"inconclusive: 39.8 µM [inhibitor, single point]"
5,CCOC(=O)c1cc2c(ccn2-c2ccc(F)cc2)n1CC(=O)N(CC)CC,"inconclusive: 56.2 µM [inhibitor, partial curve]"
6,COC(=O)Nc1ccc(SCC(=O)c2cccc([N+](=O)[O-])c2)cc1,"inconclusive: 56.2 µM [inhibitor, partial curve]"
7,O=C(NNc1ccccn1)c1ccc(Cl)nc1,active: 4.47 µM
8,Cc1ccc2nc(/C(C#N)=C\c3cc(C)n(-c4cccc([N+](=O)[O-])c4)c3C)[nH]c2c1,"inconclusive: 7.08 µM [inhibitor, full curve, poor fit]"
9,C/C=C(/CCC1NCCc2c1[nH]c1ccccc21)[Si](C)(C)C (centres undefined),"inconclusive: 56.2 µM [inhibitor, partial curve]"
10,CCOC(=O)c1cc(-c2cccs2)nc2c1c(C)nn2-c1ccccn1,inactive
11,Cn1c(CN2CCCC2)nc2cc(NS(=O)(=O)c3ccccc3)ccc21,inactive
12,CCOC(=O)C(Cc1c[nH]c2ccccc12)NC(=O)COc1ccc(Cl)c(C)c1 (centres undefined),"inconclusive: 56.2 µM [inhibitor, partial curve]"
13,COc1ccc(C(c2c(O)ccc3ccccc23)N2CCOCC2)c(OC)c1 (centres undefined),active: 89.1 µM
14,CCOc1nc(NC(=O)NS(=O)(=O)Oc2ccccc2)nc(-c2ccccc2)n1,inactive
15,Cc1ccc(NC(=S)Nn2cnnc2)cc1,"inconclusive: 89.1 µM [inhibitor, partial curve]"
16,COc1ccccc1C(=O)NNC(=O)c1cccc([N+](=O)[O-])c1,inactive
17,COc1ccccc1-n1c(/C=C/c2c(C)n(C)c3ccccc23)nc2ccccc2c1=O,inactive
18,OC(CN1CCN(c2ccccc2)CC1)Cn1c2ccccc2c2ccccc21 (centres undefined),"inconclusive: 50.1 µM [inhibitor, partial curve]"
19,COc1ccc(-n2c(=S)[nH]c3cc(C(=O)NCCCN4CCCC4=O)ccc3c2=O)cc1OC,"inconclusive: 89.1 µM [inhibitor, single point]"
20,O=C(CCN1CCN(c2ccccc2F)CC1)Nc1ccc(F)cc1,inactive
21,COc1cc(C(=O)N2CCN(C(=O)c3cccc4ccccc34)CC2)cc(OC)c1OC,inactive
22,CN(C)CCNc1ncnc2c1sc1nc(N3CCOCC3)c3c(c12)CC(C)(C)SC3,"inconclusive: 44.7 µM [inhibitor, partial curve]"

row,SMILES,Potency
1,COc1ccc(-c2noc(CSc3nnc(-c4ccncc4)n3-c3ccc(C)cc3)n2)cc1,"inconclusive: 50.1 µM [inhibitor, partial curve]"
2,CCNCCNc1ccc(Cl)cc1[N+](=O)[O-],"inconclusive: 31.6 µM [inhibitor, partial curve]"
3,CCOc1cc(C(=O)N2CCc3c([nH]c4ccccc34)C2c2ccccc2)cc(OCC)c1OCC (centres undefined),"inconclusive: 35.5 µM [inhibitor, partial curve]"
4,CN(Cc1cccs1)C(=O)CN1CCN(S(=O)(=O)c2ccc3c(c2)OCCCO3)CC1,inactive
5,N#Cc1cn(-c2ccccc2)nc1-c1cc2ccccc2oc1=O,"inconclusive: 79.4 µM [inhibitor, single point]"
6,Cc1ccc(S(=O)(=O)N2CCN(c3ccc(C(F)(F)F)cc3[N+](=O)[O-])CC2)cc1,"inconclusive: 14.1 µM [inhibitor, full curve]"
7,O=C(O)/C=C/c1cccc(NC(=O)Nc2ccc([N+](=O)[O-])cc2)c1,"inconclusive: 20 µM [inhibitor, full curve, poor fit]"
8,C=CCn1c(SCCCc2ccccc2)nc2c1c(=O)[nH]c(=O)n2C,inactive
9,COc1ccc(N2CCC(CNC(=S)Nc3cc(C)cc(C)c3)C2)cc1 (centres undefined),active: 20 µM
10,CCC(C)Nc1nc(-c2ccccn2)nc2ccccc12 (centres undefined),"inconclusive: 14.1 µM [inhibitor, partial curve, poor fit]"
11,COc1ccc(N2C(=O)/C(=C\c3ccco3)N=C2SCC(N)=O)cc1Cl,"inconclusive: 50.1 µM [inhibitor, partial curve]"
12,COC(=O)C1=C(C)N(Cc2ccco2)C(=O)/C1=C\c1ccc([N+](=O)[O-])cc1,"inconclusive: 25.1 µM [inhibitor, full curve]"
13,O=C(O)C1CCN(Cc2ccccn2)CC1,"inconclusive: 31.6 µM [inhibitor, partial curve]"
14,C/C(=N\N1CCN(C2c3ccccc3-c3ccccc32)CC1)c1cccnc1,"inconclusive: 44.7 µM [inhibitor, partial curve]"
15,CCCC(=O)NCc1ccc2c(c1)cc(C)n2C,inactive
16,CCOC(=O)C1CCN(C(=S)Nc2ccc(S(N)(=O)=O)cc2)CC1,"inconclusive: 70.8 µM [inhibitor, single point]"
17,O=C(N/N=C/c1ccc(-c2ccccc2[N+](=O)[O-])o1)c1cncc(Br)c1,"inconclusive: 25.1 µM [inhibitor, full curve]"
18,O=[N+]([O-])c1cc(C(F)(F)F)ccc1NCCNC(=S)Nc1ccc(Cl)cc1,"inconclusive: 25.1 µM [inhibitor, full curve]"
19,CSc1nnc2c3ccccc3c3ccccc3c2n1,"inconclusive: 17.8 µM [inhibitor, partial curve]"
20,Cc1ccc(CNCc2ccc3c(c2)OCO3)c(C)c1,active: 39.8 µM
21,CCOC(=O)c1sc(N/N=C/c2ccccc2)nc1C,"inconclusive: 50.1 µM [inhibitor, partial curve]"
22,COc1ccc(CCNC(=O)c2ccc(CS(=O)(=O)Cc3cccc(C)c3)o2)cc1OC,"inactive and inconclusive: 50.1 µM [inhibitor, partial curve]"

# — PubChem BioAssay AID504339 (National Center for Advancing Translational Sciences (NCATS), 2011)
